Several values for one entry are separate records, joined by “and”; a condition that tells them apart may be missing. Identical values can stand only once.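 All cell lines were grown in 96-well plates and treated with compound for 48 hours. GI50: concentration for 50% inhibition of growth. TGI is the concentration that stops growth completely.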
tested on: NCI-H322M lung; assay: DTP human tumour cell line panel, 48 h

**Q.** For `C/C(=N\NS(=O)(=O)c1ccc(C)cc1)C(CN(C)C)C(c1ccccc1)c1c(O)c2ccccc2oc1=O` (stereo not drawn), which TGI is on record?
**A.** > 100 µM

**Q.** With `C=CCNC(=O)/C(Cc1cc(Br)c(OC)c(Br)c1O)=N\O` as the compound, how does the TGI read?
**A.** 34.4 µM

**Q.** How did the TGI turn out when `CC(=O)OCC1OC(n2c3c(c(-c4ccc(Cl)cc4)c(C#N)c2=S)C(=O)CC(C)(C)C3)C(OC(C)=O)C(OC(C)=O)C1OC(C)=O` (stereo not drawn) was run?
**A.** > 95.1 µM

**Q.** Which TGI does the source give for `COc1cc2c(cc1OC)C1C(O)C(OC)C=C3CC[N+](C)(C2)C31` (stereo not drawn) here?
**A.** > 100 µM

**Q.** Which results are given for `Cc1ccccc1-n1c(/C=C\c2ccccn2)nc2ccccc2c1=O`?
**A.** GI50: 25.3 µM; TGI: 89.7 µM

**Q.** Which results are given for `CCCCCC(=O)OCC(=O)O[C@@H]1C[C@]2(C(C)C)O[C@@]1(C)[C@@H]1CC[C@@H](C)[C@H]1[C@@H]2OC(=O)/C=C/c1ccccc1`?
**A.** GI50: > 85.4 µM; TGI: > 100 µM

**Q.** How did the TGI turn out when `Cc1nccc2c1cnc1ccnn12` was run?
**A.** > 100 µM

**Q.** Which TGI does the source give for `CCOC(=O)C1=C(C)N(C)C(=S)NC1c1cccc(O)c1` (stereo not drawn) here?
**A.** > 100 µM

**Q.** `CS(=O)(=O)c1[nH]nc2[nH]c(=O)[nH]c(=O)c12` was tested. Which TGI did it give?
**A.** > 10 µM

**Q.** `CN(C)c1ccc(C2CC(=O)C(C#N)=C(c3ccccc3)NN2C)cc1` (stereo not drawn) was tested. Which TGI did it give?
**A.** > 100 µM

**Q.** For `COc1ccc2c(c1)N(C(C)=O)CN1C(=O)CCC21` (stereo not drawn), which TGI is on record?
**A.** > 100 µM

**Q.** For `CC(C)c1cc(CNc2nc(Nc3cc(C4CC4)[nH]n3)cc(N3CCN(C)CC3)n2)on1`, which GI50 is on record?
**A.** 0.621 µM and 0.329 µM

**Q.** And the TGI?
**A.** 5.61 µM and 3.28 µM

**Q.** How did the TGI turn out when `CCCCSCc1nc2nc(Cl)c(Cl)nc2[nH]1` was run?
**A.** 86.1 µM

**Q.** `c1ccc([C@@H]2N[C@@]3(CO[Si](c4ccccc4)(c4ccccc4)c4ccccc4)CC[C@H]4CN[C@@H]2[C@H]43)cc1` was tested. Which TGI did it give?
**A.** 22.9 µM

**Q.** For `Cc1cc(=O)[nH]c(NN2C(Cl)C(=O)C2c2cccc([N+](=O)[O-])c2)n1` (stereo not drawn), which TGI is on record?
**A.** > 100 µM

**Q.** With `CC(=O)OC1OC2C(NC(=O)OC(C)(C)C)C1CC2(OCc1ccccc1)OCc1ccccc1` (stereo not drawn) as the compound, how does the TGI read?
**A.** > 100 µM

**Q.** For `COc1ccc(C2C(c3ccccc3)C(=O)N2c2cc(OC)c(OC)c(OC)c2)cc1I` (stereo not drawn), which GI50 is on record?
**A.** 0.546 µM

**Q.** And the TGI?
**A.** > 100 µM

**Q.** Which results are given for `CCCC(=O)NC(c1ccc2c(c1)OCO2)c1ccc2cccnc2c1O` (stereo not drawn)?
**A.** GI50: 0.6 µM; TGI: > 100 µM

From PubChem BioAssay (NCI)
